Out of some 150,000 compounds screened, about 540 (0.36%) showed an effect of 50% or more. The list shows a part of the results.

The subject of this experiment is Plasmodium falciparum. The experiment is described as follows: Primary screen in NF54 nanoGlo assay, in single point, at 2uM, 72h; a lower Z score goes with more inhibition. The following applies: timepoint 72 hour. In kind it is functional, Erythrocyte.
The % Inhibition is the change of the read-out against control, counted positive when it falls. Consider `Cc1cc(NC(=O)NCCc2ccsc2)no1`, for which the “% Inhibition” value is on record as 3% and the Z score was -0.51.
In the case of `COc1cc(N2CCC3(CC2)CC(=O)N(Cc2ccc(F)c(F)c2)C3)ncn1`, the “% Inhibition” value is given as 2% and the Z score was -0.36.
`CNc1ccnc(-c2cccc3c2OC(F)(F)O3)n1`: the “% Inhibition” value came out at 1% and the Z score was -0.19.
Regarding `Cc1ccc(-n2nnnc2N2CCc3ccccc3C2)cc1`, the “% Inhibition” value is on record as -14% and the Z score stood at 1.86.
On the same counts, the results for `CCCOCCN1CCN(C[C@@H]2CCCN3CCCC[C@H]23)CC1` are -18% and 2.28.
For `O=C(NC1CCCCCCC1)C1CCC(C(F)(F)F)NC1=O` (centres undefined), in that order: -10% and 1.35.
Turning to `CCc1nc(CN2CCc3cc(OC)c(OC)cc3[C@@H]2c2cccnc2)n[nH]1`, the “% Inhibition” value is on record as -6% and the Z score came to 1.21.
On to `COc1ncnc(C)c1-c1ccc(C(=O)N2CCS(=O)(=O)CC2)cc1`, for which the “% Inhibition” value is recorded as 3% and the Z score was -0.37.
For `CCc1[nH]nc(NS(=O)(=O)c2sc(C)nc2C)c1C`, in that order: 0% and 0.02.
In the case of `O=C(NCCCc1nc2c(s1)CCCC2)c1cscn1`, the “% Inhibition” value is 9% and the Z score was -1.32.
With `CN(Cc1ncc[nH]1)Cc1cc2cc3c(cc2nc1-c1ccc(Cl)cc1)OCO3`, the “% Inhibition” value is -20% and the Z score was determined as 2.86.
As for `CCc1nnc(CNC(=O)[C@H]2CCC(=O)N(C3CCCC3)C2)s1`, the “% Inhibition” value is recorded as 8% and the Z score is -1.11.
Take `COc1ccc(NC2(C(=O)NCCc3nc(C)cc(=O)[nH]3)CCCCC2)cc1`: the “% Inhibition” value is on record as -1% and the Z score is 0.2.
For `COc1cccc(C2=CCN(S(=O)(=O)c3ccc4c(c3)NC(=O)CO4)C2)c1`, in that order: -32% and 3.25.
For `CC(C)c1ccc(-c2noc(CCC(=O)Nc3ncccc3O)n2)cc1`, the “% Inhibition” value was -6% and the Z score came out at 0.77.
As to `Cc1cc(NC(=O)c2ccno2)n(-c2nc3c(F)cccc3s2)n1`, the “% Inhibition” value amounted to 17% and the Z score is recorded as -2.24.
In the case of `CC(C)(C)CCOc1cnccc1CNC(=O)N1CCOc2ccc(O)cc2C1`, the “% Inhibition” value is recorded as -10% and the Z score came out at 1.6.
For `Cc1nc(C)c(C(=O)N[C@H]2CCN(c3ccc(=O)n(CCOc4ccccc4)n3)C2)s1`, in that order: -12% and 2.2.
Turning to `COc1cccc(NC(=O)N[C@H]2CCN(c3ccc(F)cc3)C2=O)c1`, the “% Inhibition” value is reported as -2% and the Z score is recorded as 0.34.
As to `COc1ccccc1CNC(=O)[C@]1(C)Cn2nc(-c3ccccc3)cc2C(=O)N1c1cc(C)cc(C)c1`, the “% Inhibition” value is given as 10% and the Z score was -1.51.
`CCOCCN[C@@H](C(N)=O)c1ccc(Br)cc1F`: the “% Inhibition” value was 0% and the Z score is given as -0.06.
On to `Clc1cccc2sc(OC3CCNCC3)nc12`, for which the “% Inhibition” value is listed as 21% and the Z score is -2.68.
In the case of `O=C(Nc1ccc(C(F)(F)F)cc1)N1CCCS(=O)(=O)CC1`, the “% Inhibition” value is given as -4% and the Z score was found to be 0.55.
With `CC[C@H](C)Cc1nc(C2(COCc3ccccc3)COC2)no1`, the “% Inhibition” value was -8% and the Z score stood at 1.22.
As for `COc1cc(Cl)c(C)cc1NC(=O)CNC(=O)Cn1c(C)cc2ccccc2c1=O`, the “% Inhibition” value is -6% and the Z score turned out to be 0.99.
As for `Cn1nnc2ccc(NC(=O)Cc3ccc4c(c3)OCC4)cc2c1=O`, the “% Inhibition” value was found to be 9% and the Z score is reported as -1.06.
For `O=C1NCCOCCCN(C(=O)NCCc2ccccc2)[C@H]2CCC[C@@H]12`, in that order: -14% and 2.01.
For `CCc1nc2ccccc2n1[C@@H](CC)C(=O)NCCN(C)S(C)(=O)=O`, the “% Inhibition” value amounted to 19% and the Z score is -2.39.
On the same counts, the results for `CC1CN(C(=O)c2cccc(-n3cncn3)c2)CC(C)N1` (centres undefined) are -3% and 0.37.
For `O=C(NC1CC1)c1cc(-c2ccc(F)cc2)c[nH]1`, the “% Inhibition” value was -13% and the Z score turned out to be 1.86.
For `CCc1ncnc(N2CCOC[C@H]2c2noc(C(C)C)n2)c1F`, in that order: -7% and 0.85.
`CC1(C)C[C@@H](N2N=C(C3(C)CC3)CC2=O)CCO1`: the “% Inhibition” value is -6% and the Z score was 0.76.
As for `CC(=O)N1CCC(CCNC(=O)NC2CCC(C(C)C)CC2)CC1` (centres undefined), the “% Inhibition” value came out at 34% and the Z score is -3.8.
For the molecule `COc1ccc(Oc2nc(-c3ccc(OC)cc3)ncc2C(=O)NC[C@H]2CCCO2)cc1`, the “% Inhibition” value is reported as -5% and the Z score is reported as 1.02.
Turning to `COc1ccc(C(=O)Nc2nc3n(n2)[C@H](c2ccccc2Cl)C=C(c2ccc(C)cc2)N3)cc1`, the “% Inhibition” value is given as -3% and the Z score is recorded as 0.48.
Regarding `N#CCCN(C(=O)c1cc(-c2ccc(Br)cc2)nc2ccccc12)c1ccccc1`, the “% Inhibition” value was -5% and the Z score turned out to be 0.84.
Consider `CC(C)C(=O)N1CCC(Nc2cc(N3CCC[C@@H]3CO)ncn2)CC1`, for which the “% Inhibition” value is recorded as -8% and the Z score worked out at 1.74.
With `Fc1cncc(CN2CCCN(Cc3cncc(F)c3)CC2)c1`, the “% Inhibition” value is recorded as -40% and the Z score is 4.72.
With `COc1ccc(Cl)cc1N1CCC(NC(=O)[C@@H](O)c2ccccc2)C1` (some centres undefined), the “% Inhibition” value is recorded as -5% and the Z score was 0.78.
Consider `c1c(N2CCCC2)c2nonc2c2nonc12`, for which the “% Inhibition” value is -12% and the Z score was 2.09.
`O=S(=O)(CC1CC1)N[C@H]1CCOC2(CCCC2)C1`: the “% Inhibition” value worked out at 35% and the Z score is -3.92.
On the same counts, the results for `CC(C)(O)Cn1cc(Br)cn1` are -5% and 0.75.
